Laboratory results: PubChem BioAssay AID652104 (National Center for Advancing Translational Sciences (NCATS), 2013)
The campaign covered roughly 410,000 compounds. About 7,200 (1.8%) were called active. The shares of active, inactive and inconclusive entries below differ from those in the screen. The call rests on the fitted dose curve; in most records, active means well fitted activation curve with a large enough effect; inconclusive means small, poorly fitted or top-dose-only effect, or another doubt; inactive means no such curve, though single readings can be large or run the other way. A potency beside an inconclusive call is a rough fit, not a confirmed value.

Test: qHTS of TDP-43 Inhibitors; further: nearly all actives have a fitted effect of over 50% in size; on growth rescue (activation): % of control where 0% means no effect
Conditions: TDP-43 expressing yeast growth rescue, BacTiter-Glo, 24 h; growth rescue (activation): at 46.1 µM (top of the series) unless noted
Outline: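 Luminescence from BacTiter-Glo reports growth of TDP-43-expressing yeast after 24 hr at 30 deg C with compound. Cells were raffinose-pregrown to mid-log, then seeded in galactose medium at OD600=0.02.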
Potency means the concentration at half of the fitted maximal effect; tags describe the fitted curve by direction and shape.

Potency, active:
Cc1nc2c(nc1C)C(=O)c1ccccc1C2=O 17.8 µM, O=S(=O)(NCCc1ccccc1)c1cnc(Cl)c(Br)c1 11.2 µM, COc1ccc(NC(=S)N2CCC3CC2c2c(Cl)cccc23)c(OC)c1 (stereo unspecified) 14.1 µM, CCN1C(=O)[C@H]2[C@@H](c3ccc(-c4ccccc4)cc3)N3CCC[C@@]3(C(=O)OC)[C@H]2C1=O 35.5 µM, COC1=C(Nc2ccc(C)cc2)C(=O)c2ccccc2C1=O 10 µM, COc1ccc(C/C(N)=N/OC(=O)c2cccs2)cc1 15.8 µM

Potency, inconclusive:
O=C(/C=C/c1ccc([N+](=O)[O-])s1)N1CCCC1 10 µM [activator, partial curve], COc1ccc(C2CC(c3cccc([N+](=O)[O-])c3)=NN2/C(C)=C/C(C)=O)cc1 (stereo unspecified) 17.8 µM [activator, partial curve], CCCCNc1ccc(C(=O)O)cc1 17.8 µM [activator, single point], COc1cc(/C=N/NC(N)=S)cc(Br)c1OCc1ccccc1F 17.8 µM [activator, single point], CS(=O)(=O)N(CC(=O)N1CCN(c2ccccc2)CC1)c1ccc(Cl)c(C(F)(F)F)c1 14.1 µM [activator, single point], CCN(Cc1nc2ccccc2c(=O)[nH]1)C(=O)c1cc(C2CC2)nn1-c1ccccc1 35.5 µM [activator, partial curve], COc1ccccc1C(=O)Nc1cc(Cl)ccc1-n1cncn1 22.4 µM [activator, single point], O=C(O)CCN1c2ccccc2Sc2ccccc21 15.8 µM [activator, single point], CCCc1ccc(NC(=O)C2CCN(c3cnccn3)CC2)cc1 35.5 µM [activator, single point], Clc1ccc(CSc2nc3ncccc3[nH]2)cc1 2.24 µM [activator, partial curve], O=C(O)c1csc(-c2ccc(Cl)cc2)n1 20 µM [activator, partial curve], CC(=O)N1N=C(c2ccc(C)cc2)CC1c1ccc2c(c1)OCO2 (stereo unspecified) 22.4 µM [activator, single point], C#CCOCCOCCOCCNc1nc(N2CCN(C(=O)CCCCCCCCCCNC(=O)[C@H](CO)n3cc(CCCSC)nn3)CC2)nc(N2CCN(C(=O)CCCCCCCCCCNC(=O)[C@H](CCCCN)n3cc(CCO)nn3)CC2)n1 11.2 µM [activator, partial curve], Cc1cccc(-c2nsc(SCC(=O)NCC3CCCO3)n2)c1 (stereo unspecified) 25.1 µM [activator, single point], COCCCNC(=S)N(Cc1ccccc1)Cc1ccc(F)cc1 35.5 µM [activator, single point], CC(=O)c1ccc(N2CCN(C(=O)Nc3cccc(F)c3)CC2)cc1 5.01 µM [activator, full curve, poor fit], Cn1c(=O)n(Cc2ccccc2F)c2ccccc21 14.1 µM [activator, single point], COc1ccccc1NC(=O)CN1C(=O)COc2ccc(C)cc21 11.2 µM [activator, single point], Cc1cccc(N2CCN(c3ccc(C(=O)O)cc3NC(=O)c3ccccc3F)CC2C)c1 (stereo unspecified) 12.6 µM [activator, partial curve], COC(=O)C1=C(c2ccccc2)c2ccccc2S(=O)(=O)N1CC(=O)Nc1ccccc1C(F)(F)F 6.31 µM [activator, single point], Cc1csc(-c2coc3cc(O)cc(C)c3c2=O)n1 1.26 µM [activator, full curve], CC(C)c1nnc(N2C(=O)c3oc4ccccc4c(=O)c3C2c2cccc(O)c2)s1 (stereo unspecified) 35.5 µM [activator, partial curve, poor fit], Cc1ccccc1OCC(=O)NC(=S)Nc1cccc2cc(O)ccc12 15.8 µM [activator, partial curve], CC1(C(=O)Nc2cccc3c2CCCC3)CCN1C(=O)CCC1CCCC1 (stereo unspecified) 20 µM [activator, partial curve], CCn1cc(C(=O)OCC(=O)Nc2cc(C)cc(C)c2)c(=O)c2ccc(C)nc21 10 µM [activator, partial curve], O=C1C(=Cc2ccc(F)cc2)CCc2ccccc21 14.1 µM [activator, single point], O=CN(/C=C1\Sc2ccccc2C1=O)Cc1ccccc1 11.2 µM [activator, single point], COc1cccc(CNC(=O)c2cnc(N3CCCC3)nc2C)c1 35.5 µM [activator, partial curve]

Growth rescue (activation), inactive:
CC(=O)N1N=C(c2ccc(Cl)cc2)CC1c1ccco1 (stereo unspecified) 15.4%, CCOC(=O)Cc1ccc(NC(=O)N2CC(CC)Oc3ccccc32)cc1 (stereo unspecified) 12%, CCN1CCN(CCCNC(=O)Cn2nc(C)n3c(cc4cc(C)ccc43)c2=O)CC1 5.01%, Cc1nccn1-c1c([N+](=O)[O-])c(=O)n(C)c2ccccc12 -14.4%, O=C(CSC1=NNC(c2ccccn2)S1)Nc1ccc(C(F)(F)F)cc1 (stereo unspecified) 15.2%, COc1ccc2c3n(nc2c1)CCN=C3c1cc(Cl)c(N)c(Cl)c1 2.36%, O=C(NC(=S)Nc1ccccc1)c1cc(-c2ccccc2)nc2ccccc12 -6.09%, CCCOc1ccc(C(=O)C(CN2CCCC2)c2ccccc2)cc1 (stereo unspecified) 5.78%, Cc1cc(C)c2c(-n3cccc3)c(C(=O)NCCc3ccccc3)sc2n1 19%, Cc1cccc(C)c1-n1nnnc1SCSc1nnnn1-c1c(C)cccc1C -28.4%, COCCCNc1cc(C)nc2ccccc12 2.73%, COC(=O)c1scc(-c2ccc(C)cc2)c1S(=O)(=O)Nc1cccc(C(F)(F)F)c1 -5.61%
